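Results reflect a 48-hour exposure of cells in 96-well plates to compound at five concentrations. GI50 = concentration required for 50% inhibition of growth. The concentration for full growth arrest is given as TGI.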
tested on: NCI-H322M lung; test: NCI tumour cell line growth inhibition, 48 h

| Structure (SMILES) | GI50 [µM] | TGI [µM] |
| --- | --- | --- |
| O=C(Nc1ccc(-c2ccc3c(c2)NC(=O)/C3=C\c2ccc[nH]2)cc1)Nc1cccc(Cl)c1 | 2.98 | 20.3 |
| NC(=Nc1ccc(OCCCCCCCCn2ccnn2)cc1)c1ccccc1 | 0.63 | 60.7 |
| Clc1ccc(CNc2nc(SCCN3CCOCC3)nc3c2cnn3CC(Cl)c2ccc(Br)cc2)cc1 (stereo unspecified) | > 100 | > 100 |

From PubChem BioAssay (NCI)
